In all, about 33,000 sequences were measured (“E-score (-0.5 to 0.5)”: median about -0.043, highest 2% from about 0.37 on). This is one part of the list.
molecular target: T1, Upc2 (UniProt Q12151); assay: PBM E-score (8-mer binding enrichment) (E-score (-0.5 to 0.5)); higher = stronger / more preferred TF binding; most listed sequences are background and not binding sites; details: protein concentration: 200 nM; construct: GST-full length
T1 sequence: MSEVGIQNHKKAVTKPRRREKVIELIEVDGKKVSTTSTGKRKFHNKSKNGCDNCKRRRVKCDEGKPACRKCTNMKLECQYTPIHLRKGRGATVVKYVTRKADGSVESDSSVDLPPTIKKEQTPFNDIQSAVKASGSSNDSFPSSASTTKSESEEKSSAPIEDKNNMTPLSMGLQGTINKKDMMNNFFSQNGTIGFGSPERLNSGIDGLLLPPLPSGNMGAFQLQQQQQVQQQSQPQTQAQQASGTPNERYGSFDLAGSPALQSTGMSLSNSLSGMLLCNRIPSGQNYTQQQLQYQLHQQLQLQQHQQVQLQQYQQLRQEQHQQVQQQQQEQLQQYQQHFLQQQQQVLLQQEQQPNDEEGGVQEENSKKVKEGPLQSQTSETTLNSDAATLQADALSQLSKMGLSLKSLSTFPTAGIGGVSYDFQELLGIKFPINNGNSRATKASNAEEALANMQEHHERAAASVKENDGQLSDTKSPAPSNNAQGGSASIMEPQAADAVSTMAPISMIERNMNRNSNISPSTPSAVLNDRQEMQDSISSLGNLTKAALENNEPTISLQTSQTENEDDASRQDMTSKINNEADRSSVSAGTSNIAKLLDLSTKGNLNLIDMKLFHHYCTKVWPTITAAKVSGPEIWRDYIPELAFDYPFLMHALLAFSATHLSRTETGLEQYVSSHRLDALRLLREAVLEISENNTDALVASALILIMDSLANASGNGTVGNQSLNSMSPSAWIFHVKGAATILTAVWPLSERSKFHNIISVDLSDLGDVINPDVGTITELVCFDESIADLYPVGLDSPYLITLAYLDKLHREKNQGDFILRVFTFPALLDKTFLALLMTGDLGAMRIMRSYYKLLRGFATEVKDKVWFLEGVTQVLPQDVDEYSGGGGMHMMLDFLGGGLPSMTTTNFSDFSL
Method in brief: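 Full-length yeast transcription factors or their DNA-binding domains, GST-tagged and expressed with PURExpress, were applied at about 100-200 nM to universal all-10-mer Agilent arrays. These arrays had been made double-stranded by primer extension on fresh or once-stripped slides. Detection used fluorescent anti-GST, normalisation used masliner, and E-scores for ungapped eight-base words pooled with reverse complements came from the Universal PBM Analysis Suite.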

Sequence	PBM E-score
AAAGGTTA	-0.0321
ACCGCCGC	0.135
CCAGATGA	-0.189
TAGGTCCA	-0.0314
ATTATCAC	-0.0604
TATCTTAA	-0.0702
AATACGTA	0.196
ATAAGGAC	0.00647
CAACGGTA	0.0169
ACACGTGC	-0.0929
ACGGGAGC	0.222
CACAGCAG	-0.0662
CATGAACG	0.301
AGTCTCAC	-0.104
GGGGGCGA	-0.119
CTGCGTAC	0.271
CCCAAGCC	-0.0899
AATCGATT	0.128
CAGCCACA	-0.249
CTGGCACC	-0.198
AAACTATC	0.0931
ACATCATC	-0.127

Sequence	PBM E-score
CTGGGTGC	-0.106
GGCCAATA	-0.0758
ACCGGCGA	0.0232
CTCTATAA	-0.00484
ATAAGCAC	0.0464
CATATAGG	-0.181
TACTGACA	-0.028
ACTGTGAT	-0.122
TAGCGGCA	-0.0553
GGGAGGAA	-0.119
AAACCAGC	-0.123
GAAGTGGA	-0.0244
CGATTCCG	0.0502
CTCGTAGA	0.404
AGCTTACA	0.111
ATGAATGA	-0.119
GGAAAGCC	-0.133
CCCATGAG	-0.311
GTCCCTTA	0.0853
ATTGGCCA	-0.117
TGGTGCAA	-0.196
GGAGTATA	-0.09

Sequence	PBM E-score
GACCTCCA	-0.16
TCCGGCGA	-0.0332
CCGGACAA	-0.0455
AACGCGGC	0.319
CGGTCTTC	-0.117
GTGATCGA	0.0617
GTACGCCA	0.196
CTGACTAC	-0.237
ACTAAACG	0.463
GAGAGCTA	0.0363
AACGACGA	0.454
GAAGATGA	-0.155
ACCGTACA	0.39
ACTCAACG	0.224
ACGGCGCT	0.124
ACTTAAGG	-0.103
ATAGGTGG	-0.00379
ATTGACCC	0.0573
AACAAGGG	-0.101
ATATTTCA	0.0314
CTCCCAAA	-0.0646
AAGATCTG	-0.18

Sequence	PBM E-score
CGCATCAA	-0.0159
AAAATGGT	0.0385
AAACAAAC	0.135
GGCTCATA	0.033
CATTCCGA	0.043
CTGATAGC	-0.0769
CAAATCAG	-0.165
GGGGCCCA	-0.0784
TACGACGA	0.465
ACCCCAAA	0.0409
CCTAAATA	-0.0402
AGCACCTC	-0.144
TTATAGAA	0.0942
CGCCACAG	-0.274
AGGCCCAA	-0.125
CCGAAATA	0.184
CCTGTTTC	-0.186
ATTGAAAG	-0.164
AGCAGTCA	-0.105
TGTAGGAA	-0.0273
ATGTCCTA	0.0227
ACATCCCT	-0.171

Sequence	PBM E-score
AAATACCG	0.128
CACGTCCC	-0.164
AGGTTGAA	0.084
AAGAGCTG	-0.149
TATCGGGA	0.0327
AGTTAGTG	-0.168
AAATAGAT	0.132
TGCCAACA	-0.0697
AAACCGTG	0.00463
ACTTTTGG	-0.134
TATCCATA	0.2
CCTGCAGC	0.0242
CCGTTACA	0.0637
GCCGCATA	0.217
AACTTCTG	-0.0773
CCGCGTAC	0.324
ACCGACGC	0.161
CCAAGGGA	-0.11
CACGGCGA	-0.0525
CCTTCACA	-0.0972
CTGACGGA	-0.216
ACACCAAG	-0.0367
